# Experimental data reported in the supplement of paper PMC10986608.
# The other results are listed elsewhere or left out. Repeats are few or missing, and single values can be far off.
# Tested on: Candida albicans DPL-15
# Assay: growth (OD600) after compound treatment (apparently relative to screen median) (relative growth (fraction; screen median 1.02)); DPL-15 is a caspofungin-resistant clinical isolate; higher = more fungal growth (less antifungal activity)
# Settings: 25 µM; RPMI 1640; 48 h; 30 °C
row,Structure (SMILES),growth
1,C[C@@H]1c2c([nH]c(-c3ccccc3)c2C(=O)NCCc2c[nH]c3ccccc23)C(=O)C[C@H]1c1ccccc1,0.889
2,CN(C)S(=O)(=O)Nc1ccc(C(F)(F)F)cc1,0.999
3,CC(C)c1nn(-c2ccc(F)cc2)c2c1C(c1ccc(F)cc1)NC2=O (stereo unspecified),1.04
4,CO[C@@H]1[C@H](O)CC[C@]2(O)CN(c3ccc(C(C)=O)cc3)[C@@H](CC=C(C)C)[C@](C)(O)[C@@H]12,1.1
5,COC[C@@H](O)[C@H]1OCc2c(c3cc(F)ccc3n2S(C)(=O)=O)[C@@H]1/C=C/c1ccccc1,0.951
6,Cc1cc(Nc2cc(O)cc(O)c2C(=O)N2CC[C@@H](N(C)C)C2)n(C)n1,1.08
7,CC1=C(C(=O)OC(C)C)[C@@H](c2ccccc2)c2cc(C)ccc2O1,1.08
8,COc1ccc([C@H]2c3cc(OC)c(OC)cc3O[C@H]3c4ccccc4C[C@@H]23)cc1,0.93
9,COC(=O)[C@@]12Oc3cccc(O)c3C(=O)[C@@]1(Cl)C(=O)CC[C@H]2O,1.35
10,CC#CCN1C(=O)NC(c2ccccc2)C(C(=O)NCc2ccccc2)=C1C (stereo unspecified),1.11
11,COC(=O)C1=C(C)N(CC(C)C)C(=S)NC1c1ccc(OC)cc1 (stereo unspecified),0.957
12,CN1CCN=C(c2ccccc2)C2=C1C(=O)N(Cc1ccccc1)C2c1ccc(Br)cc1 (stereo unspecified),0.933
13,C#CCCC(=O)NCc1ccc(O)c(OC)c1,1.12
14,O=c1c(O)c(-c2ccc(Br)cc2)n(CC2CC2)c2cccc(F)c12,0.561
15,CCN(CC)CCCNC1=N[C@@H](c2cccc(F)c2)C(C(=O)OC)=C(C)N1Cc1ccccc1,1.07
16,Cc1ccc(C2C3=C(NCCN=C3C(C)C)C(=O)N2c2ccccc2)cc1 (stereo unspecified),1.03
17,COc1ccc([C@@]23Oc4cc(OC)cc(OC)c4[C@]2(O)c2nc(C)[nH]c(=O)c2[C@H]3c2ccccc2)cc1,1.1
18,CC(C)(C)NS(=O)(=O)OC[C@H]1O[C@@H](n2cnc3c(N(C(=O)OC(C)(C)C)C(=O)OC(C)(C)C)ncnc32)[C@@H]2OC(C)(C)O[C@@H]21,0.831
19,COc1ccc([C@@]23Oc4cc(OC)cc(OC)c4[C@]2(O)c2nc(N4CCOCC4)[nH]c(=O)c2[C@H]3c2ccccc2)cc1,0.897
20,COc1cc2c(cc1OC)CN(CCc1ccc(NC(=O)COc3ccccc3[N+](=O)[O-])cc1)CC2,1.12
21,COC(=O)C1=C(C)N(Cc2ccccc2)C(=S)NC1c1ccccc1F (stereo unspecified),0.877
